The target in this assay is T1, AMHR-II-ECD-Fc (R&D System) (human, UniProt Q16671 18-149).
T1 construct: Bought construct; also called recombinant AMHR-II; AMHR-II recombinant protein; not shown: Fc part of the bought AMHR-II-ECD-Fc (R&D System)
T1 sequence: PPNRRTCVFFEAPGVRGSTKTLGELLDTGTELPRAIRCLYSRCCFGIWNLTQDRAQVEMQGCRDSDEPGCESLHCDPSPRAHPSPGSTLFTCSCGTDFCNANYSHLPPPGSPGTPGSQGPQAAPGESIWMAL
Put plainly: ELISA, 50 ng per well AMHR-II-ECD-Fc coated, HRP anti-human F(ab')2 detection. The protocol: ELISA plates (96 wells, Maxisorp, NUnc) were coated overnight at +4° C. with 50 ng per well of AMHR-II-ECD-Fc (R&D System). Coated ELISA plates were blocked with PBS-BSA 4% for 2 hours at 37° C. and washed three times with PBS-Tween20 0.05%. […] The bound anti-AMHR-II antibodies were detected by adding HRP-conjugated F(ab′)2 goat anti-human F(ab′2) fragment specific (Interchim) diluted at 1:10000 and incubated for one hour at 37° C. Revelation was done with TMB (Sigma) and the reaction was stopped by adding H2SO4 1N (v:v). Absorbances were measured at 450 nm and binding data curves were analysis using GraphPad Prism.
In general terms: In an ELISA, binding on a coated surface is turned into a signal by an enzyme label.

One molecule from US20170035903A1 (GAMAMABS PHARMA, published 2017) can be followed below.

As a reminder, the EC50 is the concentration that produces a half-maximal response.

B1: GM103 (3C23K-Antibody Drug Conjugate) (other)
heavy: QVRLVQSGAEVKKPGASVKVSCKASGYTFTSYHIHWVRQAPGQRLEWMGWIYPGDDSTKYSQKFQGRVTITRDTSASTAYMELSSLRSEDTAVYYCTRGDRFAYWGQGTLVTVSS[human IgG1 constant region left out here]
light: DIQMTQSPSTLSASVGDRVTITCRASSSVRYIAWYQQKPGKAPKLLTYPTSSLKSGVPSRFSGSGSGTEFTLTISSLQPDDFATYYCLQWSSYPWTFGGGTKVEIKRTVAAPSVFIFPPSDEQLKSGTASVVCLLNNFYPREAKVQWKVDNALQSGNSQESVTEQDSKDSTYSLSSTLTLSKADYEKHKVYACEVTHQGLSSPVTKSFNRGEC
modifications: conjugated with a MMAE drug payload; residues not stated for GM103
notes: the general formula bridges interchain disulfide bonds; also called ADC 3C23K; 3C23K antibody conjugated to the drug payload MMAE; copies: 2 + 2
B1 had an EC50 of 24 pM.
